# The list shows a part of the results.
# B1: PX14375l-pdi-526-25-526 (Parabacteroides distasonis) (protein)
# chain: DEEPKSTLTDVAYYKTQSQMESNVNYLYRTGAIGSYVDFGSAYIGPFASIQEELTGYFSNSYEGQEIVCRYTRELTRQQNTMQLASKMDKVWDDCYRGINVANGAIKHMPEVPMDQATADRLTAEAKFFRAFNYFYLVKTFGAVPFYTDPYELAENMELPRTETSTIYNQIESDLKDAMNVLPEATFAANGHRITKYVAAMTLTDVYMYQHKYAEAAETVRIVVNSNHKLTTNDDLAMNSAFNKLRSTDDLDEAIYAYEYDNQISPSNWLPTYAFDGDASSNGLFGTYAITQKVHGPNDRYLNIYESNDLRRQPNQFYHWTYTNPKTGKVWNSVGNAACCWYYYDEDALLTTGRGTKDWNVYRYAEALLDAAESIAQSTGVTAEAAGYLAQVKARANMEGKTAAEIASSLQSMGKQAFIEECWTERLRELPLEFKMWDMCVRTGMFPNISETTPGQVTYIPLVGAKNASGATIKESDLLWPLSVNEIQRNPSLTQNEGYSAK
# Experiments:
# Assay in all cases: glycan array binding signal (z-score within array); higher = stronger binding
# Details in all cases: glycan notation: IUPAC condensed, linker removed
# [1] = molecular target: Man(a1-3)[Man(a1-6)]Man(a1-6)[Man(a1-3)]Man
# Outline: (§1)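 Arrays were curated from the Consortium for Functional Glycomics database, 3228 in total, and kept only where the protein sequence was available. Binding is expressed as a within-array Z-score. This score was averaged across arrays of the same protein sequence at different concentrations or buffers and across linkers, and negative values can be read as non-binding.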
# [2] = molecular target: Man(a1-3)[Man(a1-6)]Man(a1-6)[Man(a1-3)]Man(b1-4)GlcNAc(b1-4)GlcNAc
# Outline: as §1
# [3] = molecular target: Man(a1-3)[Man(a1-6)]Man(b1-4)GlcNAc(b1-4)GlcNAc
# Outline: as §1
# [4] = molecular target: Man(a1-3)[Man(a1-6)]Man(b1-4)GlcNAc(b1-4)[Fuc(a1-6)]GlcNAc
# Outline: as §1
# Man(a1-6)Man = molecular target: Man(a1-6)Man
# Outline: as §1
# Man(b1-4)GlcNAc = molecular target: Man(b1-4)GlcNAc
# Outline: as §1
# MurNAc(b1-4)GlcNAc = molecular target: MurNAc(b1-4)GlcNAc
# Outline: as §1
# Neu5Ac(a2-3)Gal = molecular target: Neu5Ac(a2-3)Gal
# Outline: as §1
# [5] = molecular target: Neu5Ac(a2-3)Gal(b1-3)GalNAc
# Outline: as §1
# [6] = molecular target: Neu5Ac(a2-3)Gal(b1-3)GalNAc(b1-3)Gal(a1-4)Gal(b1-4)Glc
# Outline: as §1
# [7] = molecular target: Neu5Ac(a2-3)Gal(b1-3)GalNAc(b1-4)[Neu5Ac(a2-3)]Gal(b1-4)Glc
# Outline: as §1
# [8] = molecular target: Neu5Ac(a2-3)Gal(b1-3)GalNAc(b1-4)[Neu5Ac(a2-8)Neu5Ac(a2-3)]Gal(b1-4)Glc
# Outline: as §1
# [9] = molecular target: Neu5Ac(a2-3)Gal(b1-3)GalNAc6S
# Outline: as §1
# [10] = molecular target: Neu5Ac(a2-3)Gal(b1-3)GlcNAc
# Outline: as §1
# [11] = molecular target: Neu5Ac(a2-3)Gal(b1-3)GlcNAc(b1-2)Man
# Outline: as §1
# [12] = molecular target: Neu5Ac(a2-3)Gal(b1-3)GlcNAc(b1-2)Man(a1-3)[GlcNAc(b1-4)][Neu5Ac(a2-3)Gal(b1-3)GlcNAc(b1-2)Man(a1-6)]Man(b1-4)GlcNAc(b1-4)GlcNAc
# Outline: as §1
# [13] = molecular target: Neu5Ac(a2-3)Gal(b1-3)GlcNAc(b1-2)Man(a1-3)[Neu5Ac(a2-3)Gal(b1-3)GlcNAc(b1-2)Man(a1-6)]Man(b1-4)GlcNAc(b1-4)GlcNAc
# Outline: as §1
# [14] = molecular target: Neu5Ac(a2-3)Gal(b1-3)GlcNAc(b1-3)Gal(b1-3)GlcNAc
# Outline: as §1
# [15] = molecular target: Neu5Ac(a2-3)Gal(b1-3)GlcNAc(b1-3)Gal(b1-4)GlcNAc
# Outline: as §1
# [16] = molecular target: Neu5Ac(a2-3)Gal(b1-3)GlcNAc(b1-3)GalNAc
# Outline: as §1
# [17] = molecular target: Neu5Ac(a2-3)Gal(b1-3)GlcNAc(b1-4)Gal(b1-4)Glc
# Outline: as §1
# [18] = molecular target: Neu5Ac(a2-3)Gal(b1-3)GlcNAc(b1-6)GalNAc
# Outline: as §1
# [19] = molecular target: Neu5Ac(a2-3)Gal(b1-3)GlcNAc6S
# Outline: as §1
# [20] = molecular target: Neu5Ac(a2-3)Gal(b1-3)[Fuc(a1-4)]GlcNAc
# Outline: as §1
# [21] = molecular target: Neu5Ac(a2-3)Gal(b1-3)[Fuc(a1-4)]GlcNAc(b1-3)Gal(b1-3)[Fuc(a1-4)]GlcNAc
# Outline: as §1
# [22] = molecular target: Neu5Ac(a2-3)Gal(b1-3)[Fuc(a1-4)]GlcNAc(b1-3)Gal(b1-4)[Fuc(a1-3)]GlcNAc
# Outline: as §1
# [23] = molecular target: Neu5Ac(a2-3)Gal(b1-3)[GlcNAc(b1-6)]GalNAc
# Outline: as §1
# [24] = molecular target: Neu5Ac(a2-3)Gal(b1-3)[Neu5Ac(a2-6)]GalNAc
# Outline: as §1
# [25] = molecular target: Neu5Ac(a2-3)Gal(b1-3)[Neu5Ac(a2-6)]GlcNAc(b1-3)[Fuc(a1-3)[Gal(b1-4)]GlcNAc(b1-6)]Gal(b1-4)Glc
# Outline: as §1
# [26] = molecular target: Neu5Ac(a2-3)Gal(b1-3)]Neu5Ac(a2-3)Gal(b1-4)]GlcNAc
# Outline: as §1
# Neu5Ac(a2-3)Gal(b1-4)Glc = molecular target: Neu5Ac(a2-3)Gal(b1-4)Glc
# Outline: as §1
# [27] = molecular target: Neu5Ac(a2-3)Gal(b1-4)GlcNAc
# Outline: as §1
# [28] = molecular target: Neu5Ac(a2-3)Gal(b1-4)GlcNAc(b1-2)Man
# Outline: as §1
# [29] = molecular target: Neu5Ac(a2-3)Gal(b1-4)GlcNAc(b1-2)Man(a1-3)[GlcNAc(b1-4)][Neu5Ac(a2-3)Gal(b1-4)GlcNAc(b1-2)Man(a1-6)]Man(b1-4)GlcNAc(b1-4)GlcNAc
# Outline: as §1
# [30] = molecular target: Neu5Ac(a2-3)Gal(b1-4)GlcNAc(b1-2)Man(a1-3)[Neu5Ac(a2-3)Gal(b1-4)GlcNAc(b1-2)Man(a1-6)]Man(b1-4)GlcNAc(b1-4)GlcNAc
# Outline: as §1
# [31] = molecular target: Neu5Ac(a2-3)Gal(b1-4)GlcNAc(b1-2)Man(a1-3)[Neu5Ac(a2-3)Gal(b1-4)GlcNAc(b1-2)Man(a1-6)]Man(b1-4)GlcNAc(b1-4)[Fuc(a1-6)]GlcNAc
# Outline: as §1
# [32] = molecular target: Neu5Ac(a2-3)Gal(b1-4)GlcNAc(b1-2)Man(a1-3)[Neu5Ac(a2-6)Gal(b1-4)GlcNAc(b1-2)Man(a1-6)]Man(b1-4)GlcNAc(b1-4)GlcNAc
# Outline: as §1
# [33] = molecular target: Neu5Ac(a2-3)Gal(b1-4)GlcNAc(b1-2)[Neu5Ac(a2-3)Gal(b1-4)GlcNAc(b1-4)]Man(a1-3)[GlcNAc(b1-4)][Neu5Ac(a2-3)Gal(b1-4)GlcNAc(b1-2)[Neu5Ac(a2-3)Gal(b1-4)GlcNAc(b1-6)]Man(a1-6)]Man(b1-4)GlcNAc(b1-4)GlcNAc
# Outline: as §1
binder,measurement,setting,value
B1,glycan array binding signal (z-score),[1],-0.234
same,glycan array binding signal (z-score),[2],-0.079
same,glycan array binding signal (z-score),[3],-0.157
same,glycan array binding signal (z-score),[4],-0.201
same,glycan array binding signal (z-score),Man(a1-6)Man,0.113
same,glycan array binding signal (z-score),Man(b1-4)GlcNAc,-0.174
same,glycan array binding signal (z-score),MurNAc(b1-4)GlcNAc,0.008
same,glycan array binding signal (z-score),Neu5Ac(a2-3)Gal,-0.136
same,glycan array binding signal (z-score),[5],-0.208
same,glycan array binding signal (z-score),[6],-0.092
same,glycan array binding signal (z-score),[7],-0.257
same,glycan array binding signal (z-score),[8],-0.395
same,glycan array binding signal (z-score),[9],-0.238
same,glycan array binding signal (z-score),[10],-0.206
same,glycan array binding signal (z-score),[11],0.616
same,glycan array binding signal (z-score),[12],-0.457
same,glycan array binding signal (z-score),[13],-0.041
same,glycan array binding signal (z-score),[14],-0.05
same,glycan array binding signal (z-score),[15],-0.281
same,glycan array binding signal (z-score),[16],-0.043
same,glycan array binding signal (z-score),[17],-0.322
same,glycan array binding signal (z-score),[18],-0.249
same,glycan array binding signal (z-score),[19],0.085
same,glycan array binding signal (z-score),[20],0.125
same,glycan array binding signal (z-score),[21],-0.106
same,glycan array binding signal (z-score),[22],0.136
same,glycan array binding signal (z-score),[23],-0.275
same,glycan array binding signal (z-score),[24],-0.151
same,glycan array binding signal (z-score),[25],-0.409
same,glycan array binding signal (z-score),[26],-0.23
same,glycan array binding signal (z-score),Neu5Ac(a2-3)Gal(b1-4)Glc,-0.284
same,glycan array binding signal (z-score),[27],-0.181
same,glycan array binding signal (z-score),[28],-0.302
same,glycan array binding signal (z-score),[29],-0.214
same,glycan array binding signal (z-score),[30],-0.139
same,glycan array binding signal (z-score),[31],0.098
same,glycan array binding signal (z-score),[32],-0.134
same,glycan array binding signal (z-score),[33],-0.203
